Measurements from US20060252056A1, “Markers for responsiveness to an erbB receptor tyrosine kinase inhibitor” (AstraZeneca UK Limited, priority 2003, published 2006).

Legend:
[1] = Plasma gefitinib concentration in patients of the phase II study; settings: patients with best overall response PD (LC16-LC28)
Text: Patients whose locally advanced (stage IIIB) or metastasized (stage IV) NSCLCs were resistant to one or more regimens of conventional chemotherapy were enrolled in this trial. Inclusion criteria were (1) age greater than 20 years, (2) Performance Status (PS) 0-2, (3) adequate liver and kidney function tests. […] The treatment was continued until the patient was dropped from the study due to (1) progression of disease, (2) intolerable toxicity, or (3) withdrawal of consent.

PC-9 cells [2] = assay: Flow cytometry (propidium iodide) of gefitinib-treated lung adenocarcinoma cells, sub-G1 population; format: cell-based, human; settings: 1·0 μM gefitinib, 72 hours, serum-free medium, no treatment 6%
Procedure: The cells were trypsinized 72 hours after the treatment, collected in PBS, and fixed in 70% cold ethanol for 30 min. After treatment with 100 μg/ml RNase (Sigma-Aldrich Co., St. Louis, Mo., USA), the cells were stained with 50 μg/ml propidium iodide (Sigma-Aldrich Co.) in PBS. Flow cytometry was performed on a Becton Dickinson FACScan and analyzed by ModFit software (Verity Software House, Inc., Topsham, Me., USA). The percentages of nuclei in G0/G1, S, and G2/M phases of the cell cycle and sub-G1 population were determined from at least 20,000 ungated cells.

PC-9 cells [3] = test system: PC-9 cells
advanced NSCLC [4] = settings: cited from earlier work
advanced NSCLC [5] = settings: cited from earlier work; remark: listed apart in the source
lung cancer = settings: cited from earlier work
PC-9 cells [6] = settings: reported previously by the supplier; cited from earlier work

Plasma Gefitinib Concentration, mean [1]: 263.2 ng/mL
Plasma Gefitinib Concentration, range [1]: (150.7-405.6) ng/ml
Structure (SMILES): COc1cc2ncnc(Nc3ccc(F)c(Cl)c3)c2cc1OCCCN1CCOCC1 [gefitinib, N-(3-chloro-4-fluorophenyl)-7-methoxy-6-(3-morpholinopropoxy)quinazolin-4-amine]
percentages of nuclei in sub-G1 (PC-9 cells [2]): 24%
viability of PC-9 cells in serum-free conditioned medium (NCI-H358 or -H522) containing gefitinib vs serum-free medium with the same gefitinib concentrations (PC-9 cells [3]; 0·5 or 1·0 μM gefitinib, 72 hours, MTT): greater
anti-tumor activity of gefitinib on PC-9 cells under autocrine secretion of AREG (PC-9 cells [3]; PC-9 cells, gefitinib-sensitive, AREG-non-expressing): dramatically decreased
tumour response rate (advanced NSCLC [4]; IDEAL 1, 2nd or 3rd line of chemotherapy, advanced NSCLC): 18.4%
disease control rate (advanced NSCLC [4]; IDEAL 1): 54.4%
overall symptom improvement rate (advanced NSCLC [4]; IDEAL 1): 40.3%
tumour response rate (advanced NSCLC [5]; IDEAL 2, 3rd or 4th line of chemotherapy, advanced NSCLC): 11.8%
disease control rate (advanced NSCLC [5]; IDEAL 2): 42.2%
overall symptom improvement rate (advanced NSCLC [5]; IDEAL 2): 43.1%
response rate (lung cancer; patients with lung cancer, earlier studies): less than 20%
tumor-response rates (lung cancer; phase II trials IDEAL 1 and IDEAL 2, 2nd-, 3rd-, or 4th-line monotherapy for advanced NSCLC): ~20%
anti-tumor effect of gefitinib in the presence of 10% FCS (PC-9 cells [6]): decreases

Read-outs that look alike come from different tables or passages of the source.
